Assay results published in the supplement of paper PMC4604168 (melanoma cell lines).
The other results are listed elsewhere or left out. Many values rest on one well or one pass, so single values are uncertain.

Each molecule was assayed on SkMel5 (assay: cell count relative to DMSO control; melanoma cells; higher = more viable cells). Conditions: library dose: low library concentration; 72 h.
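Also: cell number obtained by counting DAPI-stained nuclei in high-throughput microscope images with image analysis software, screen run in 1,536-well plates.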

Question: Which cell count does the source give for `CC(=O)O[C@@]12CO[C@@H]1C[C@H](O)[C@@]1(C)C(=O)[C@H](O)C3=C(C)[C@@H](OC(=O)[C@H](O)[C@@H](NC(=O)OC(C)(C)C)c4ccccc4)C[C@@](O)([C@@H](OC(=O)c4ccccc4)[C@H]21)C3(C)C` [Docetaxel] + CC(C)CCN1c2nc(Nc3cc(F)c(O)c(F)c3)ncc2N(C)C(=O)C1C [BID1870] (first compound 0.0001 µM, partner dose 0.2 µM) here?
Answer: 73.8%

Question: `CC(=O)c1c(C)c2cnc(Nc3ccc(N4CCNCC4)cn3)nc2n(C2CCCC2)c1=O` [palbociclib] + O=C(CCCCCCC(=O)Nc1ccccc1)NO [vorinostat] (first compound 0.04 µM, partner dose 0.08 µM) was tested. Which cell count did it give?
Answer: 65.5%

Question: `CC(=O)c1c(C)c2cnc(Nc3ccc(N4CCNCC4)cn3)nc2n(C2CCCC2)c1=O` [palbociclib] + CC1(C)NC(=O)N(c2ccc([N+](=O)[O-])c(C(F)(F)F)c2)C1=O [nilutamide] (first compound 0.04 µM, partner dose 1 µM) was tested. Which cell count did it give?
Answer: 78.9%

Question: How did the cell count turn out when `Nc1ncn([C@H]2C[C@H](O)[C@@H](CO)O2)c(=O)n1` [decitabine] + O=C(O)c1ccc(-c2c[nH]c3ncc(-c4ccccc4)cc23)cc1C1CCCC1 [GSK650394] (first compound 0.1 µM, partner dose 0.16 µM) was run?
Answer: 93.7%

Question: Which cell count does the source give for `CC(=O)O[C@@]12CO[C@@H]1C[C@H](O)[C@@]1(C)C(=O)[C@H](O)C3=C(C)[C@@H](OC(=O)[C@H](O)[C@@H](NC(=O)OC(C)(C)C)c4ccccc4)C[C@@](O)([C@@H](OC(=O)c4ccccc4)[C@H]21)C3(C)C` [Docetaxel] + C=CCn1c(=O)c2cnc(Nc3ccc(N4CCN(C)CC4)cc3)nc2n1-c1cccc(C(C)(C)O)n1 [MK1775] (first compound 0.0001 µM, partner dose 0.02 µM) here?
Answer: 83.2%
